Assay results taken from PubChem BioAssay AID1347073 (National Center for Advancing Translational Sciences (NCATS), 2019).
About 200 (0.44%) of roughly 45,000 compounds were called active. Another 7% or so got no clear call; they are omitted. Calls follow the shape of the dose curve; as a rule, active = well fitted activation curve with a large enough effect; inconclusive = small, poorly fitted or top-dose-only effect; inactive = no such curve, though single readings can be large or run the other way. Some of the results follow.

test: qHTS of TDP-43 Inhibitors: NCGC Sytravon Library Screen; conditions: yeast TDP-43 toxicity rescue, BacTiter-Glo growth, 24 h; series mostly up to 46.1 µM; growth rescue (activation): at the top concentration; also: 0% is about no effect; nearly all actives have a fitted effect of over 55% in size
How it was run: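 TDP-43-expressing yeast, pregrown in raffinose, seeded at OD600 0.02 in galactose medium with compound for 24 hr at 30 deg C. Growth read by BacTiter-Glo luminescence, so rescue of toxicity appears as activation.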

Row | SMILES | growth rescue (activation)
1 | CCN(CC(=O)Nc1cc(Cl)ccc1C)C(=O)CC1CCCC1 | inactive: 44.3%
2 | O=C(c1ccc(Cl)c(S(=O)(=O)N2CCc3ccccc32)c1)N1CCN(c2ccccc2O)CC1 | inactive: 21.2%
3 | CCCN(CC1CC1)C(=O)COC(=O)c1ccc2c(c1)C(=O)N(c1ccc(OCC)cc1)C2=O | inactive: 10.8%
4 | CCC(=O)c1ccc(OCC(=O)NNC(=O)c2cc(C)oc2C)cc1 | inactive: -2.71%
5 | CCc1nc2c(OCCC3CCCCC3)cccn2c1N(C)C(=O)c1ccncc1 | inactive: -0.651%
6 | CCOC(=O)c1sc(NC(=O)C2CC(=O)N(c3ccc(C)cc3)C2)nc1C (configuration not stated) | inactive: -4.09%
7 | CC(C)c1ccc(-c2c(C#N)c(N)nc3c2CCCCC3)cc1 | inactive: 12.8%
8 | CCN(CC)CCNC(=O)c1ccc(NC(=O)c2ccccc2-c2ccc(C(F)(F)F)cc2)cc1 | inactive: 1.27%
9 | CC1(C(=O)NS(=O)(=O)c2ccc(Cl)cc2)CCN1C(=O)C1CCCCC1 (configuration not stated) | inactive: -2.04%
10 | CN(/N=C/c1cccc(Br)c1)C1=NS(=O)(=O)c2ccccc21 | inactive: 7.97%
11 | Cc1cc(C)c2nc(NC(=O)c3cc(C)on3)sc2c1 | inactive: 29.7%
12 | COc1ccccc1-c1cc(NC=O)c2ncc(-c3cccc(C(C)=O)c3)n2c1 | inactive: 25.6%
13 | CCCCNS(=O)(=O)c1ccc2nc(SCC(=O)Nc3ccccc3Cl)[nH]c2c1 | inactive: -17.4%
14 | Cc1cc(C)cc(N(CC(=O)NC(C)(C)C)C(=O)CNC(=O)c2cccs2)c1 | inactive: 9.92%
15 | Cc1nc(NC(=O)CSc2nc(N)cc(N)n2)sc1C | inactive: 4.64%
16 | Cc1ccc(S(=O)(=O)N2CCOCC2)cc1NC(=O)CSc1ccccn1 | inactive: 11.1%
17 | CC(Cc1ccco1)NC(=O)c1ccc(C(F)(F)F)cc1 (configuration not stated) | inactive: 6.85%
18 | CCC1CCCCN1CCCNC(=O)Cn1cnc2sc(C)c(S(=O)(=O)N3CC(C)CC(C)C3)c2c1=O (configuration not stated) | inactive: 9.07%
19 | CCOC(=O)c1cc2c(ccn2C)n1Cc1ccc(C#N)cc1 | inactive: 8.11%
20 | CCOCCCNC(=O)CSc1nc2nc(C)c(Cc3ccccc3)c(C)n2n1 | inactive: 2.52%
21 | O=C1OCCN1CCNCc1cn(-c2ccc(F)cc2)nc1-c1ccccc1Cl | inactive: -0.934%
22 | Cc1cccc(Cn2cnc3c(sc4nc(C)cc(C)c43)c2=O)c1 | inactive: -0.989%
23 | C/C(=N\Nc1ccccc1C(=O)O)c1ccncc1 | inactive: -1.5%

Row | SMILES | growth rescue (activation)
24 | COc1cc(C(=O)OCC(=O)Nc2cc(-c3cc(C)c(C)cc3C)nn2-c2ccccc2)cc(OC)c1OC | inactive: 2.13%
25 | Cc1cc(C(=O)NC(C)CCC(C)C)c2ccccc2n1 (configuration not stated) | inactive: 11.5%
26 | NS(=O)(=O)c1ccc(N/N=C/c2ccc(O)c(O)c2O)c([N+](=O)[O-])c1 | inactive: -4.88%
27 | NS(=O)(=O)c1ccc(S(=O)(=O)N2CCN(C3CCCC3)CC2)cc1 | inactive: 11.2%
28 | Cc1ccc(-c2noc(C3CCCN(C(=O)c4cccc([N+](=O)[O-])c4)C3)n2)o1 (configuration not stated) | inactive: 12.1%
29 | CN(C)CCCNc1nc2cc(-c3ccccc3CO)sc2c(=O)n1C | inactive: 12.2%
30 | O=C(Nc1ccc(S(=O)(=O)N2CCCCC2)cc1)C1CCCCC1 | inactive: 12%
31 | Cc1cccn2c(=O)c3cc(C(=O)NC4CCCCC4)sc3nc12 | inactive: -15.3%
32 | CS(=O)(=O)N1CCC(C(=O)Nc2cccc([N+](=O)[O-])c2)CC1 | inactive: -2.78%
33 | Clc1ccc2nc(CSCc3ccccc3)cn2c1 | inactive: 11.9%
34 | Cc1nnc(N/N=C/c2ccc(-c3ccccc3F)o2)n1N | inactive: 11.5%
35 | COc1ccccc1N(C)S(=O)(=O)c1ccc(C(=O)Nc2nc(C)cs2)cc1 | inactive: 6.09%
36 | CCOC(=O)C1CCCCN1Cc1ccc(C(F)(F)F)cc1 (configuration not stated) | inactive: 17.5%
37 | C=CCn1c(C)cc(C(=O)CSc2nnc(NC(C)C)s2)c1C | inactive: 27.2%
38 | CCCCOc1ccc(S(=O)(=O)NCc2csc(-c3ccc(OC)cc3)n2)cc1 | inactive: 5.59%
39 | O=C1c2cccc3cccc(c23)C(=O)N1CCN1CCN(C(=S)Nc2ccc(Cl)cc2)CC1 | inactive: -1.54%
40 | CCc1nnc(NS(=O)(=O)c2ccc(NCc3ccccc3O)cc2)s1 | inactive: 11.4%
41 | CC(=O)Nc1ccc(-c2ccnc3c2CC(C)(C(=O)Nc2ccc4c(c2)OCO4)O3)cc1 (configuration not stated) | inactive: -0.711%
42 | O=C(OCc1cc(=O)n2cc(Br)ccc2n1)c1ccc(Cl)c(S(=O)(=O)NCc2ccccc2)c1 | inactive: 10.3%
43 | NC(=O)NC(Cc1ccccc1)C(=O)NNC(=O)COc1ccccc1Cl (configuration not stated) | inactive: 7.77%
44 | CCOC(=O)N1CCN(C(=S)NC2CCCCC2)CC1 | inactive: 12.4%
45 | CCOc1ncccc1C(=O)OCC(=O)c1ccc(Br)s1 | inactive: -3.61%
46 | COc1ccc(C2CC3(CC(C)(C)NC(SC)=N3)Oc3cc(O)cc(C)c32)cc1 (configuration not stated) | inactive: 16.1%

Row | SMILES | growth rescue (activation)
47 | Cc1ccc(C(C)C)c(OCC(=O)OCC(=O)NC2CC2)c1 | inactive: 18.4%
48 | Cc1ccc(NC(=O)CSc2nc(C)c(C)c(C)n2)cc1S(=O)(=O)N1CCOCC1 | inactive: 4.77%
49 | Cc1nn(C)c(C)c1NC(=O)c1cc2nc(-c3ccco3)cc(C(F)(F)F)n2n1 | inactive: 6.28%
50 | Cc1c(Cc2ccccc2)c(=O)oc2cc(O)cc(O)c12 | inactive: 7.1%
51 | COc1ccccc1OCCC(=O)N1CCN(c2ccccc2OC)CC1 | inactive: 28%
52 | CCn1cc(C(=O)N(CCC(C)C)c2c(N)n(Cc3ccccc3)c(=O)[nH]c2=O)c(=O)c2ccc(C)nc21 | inactive: 5.6%
53 | O=C(NCc1cccnc1)C1COc2ccccc2O1 (configuration not stated) | inactive: 16.3%
54 | Cc1ccnc(NC(=O)CCC(=O)N(CC(=O)NCCc2ccccc2)c2ccc(F)cc2)c1 | inactive: -3.78%
55 | CCc1ccc(Oc2ncnc(N)c2[N+](=O)[O-])cc1 | inactive: 28.1%
56 | O=C(NNS(=O)(=O)c1ccc(Cl)cc1)c1ccc(S(=O)(=O)N2CCCCC2)cc1 | inactive: 10.8%
57 | COc1ccc(CCNC(=O)Nc2nc(C(N)COCc3ccccc3)cs2)cc1OC (configuration not stated) | inactive: 2.93%
58 | CCOC(=O)c1cc(-c2ccc(N3CCOCC3)cc2)nn1-c1ccccc1C(=O)O | inactive: -7.96%
59 | COc1cc2cccc(OC)c(=O)c2c(O)c1OC | inactive: 2.92%
60 | CCN1CCN(C(=O)CN(c2ccc(F)c(Cl)c2)S(C)(=O)=O)CC1 | inactive: 0.616%
61 | CCCCNC(=O)COC(=O)c1ccc(N(C)C)cc1 | inactive: 23.7%
62 | COc1ccc(OC)c(NC(=O)CSc2nc(O)cc(=O)n2CC(C)C)c1 | inactive: -5.54%
63 | COc1ccc(NC(=O)/C=C/c2ccccc2)c([N+](=O)[O-])c1 | inactive: 16.1%
64 | CCOc1cc(/C=C2/C(=N)N3OC(C)=CC3=NC2=O)ccc1OC | inactive: 10.8%
65 | COc1ccc2c(c1)C(=O)c1ccccc1CO2 | inactive: 40.8%
66 | Cn1c(=O)[nH]c(=O)c2c1nc(SCC(=O)O)n2CCc1ccccc1 | inactive: -31%
67 | O=C(CN1C(=O)NC2(CCCC2)C1=O)NCc1cccc(Cl)c1 | inactive: 0.0516%
